The campaign covered roughly 1,900 compounds. About 40 (2%) showed an effect of 50% or more. This is one part of the list.
These compounds were tested against human SGLT1 (hSGLT1) (human, UniProt P13866) (assay: primary screen, percent of control activity; higher = less effect of the substance). Conditions: 50 µM.
Parameters: single well
Procedure, shortened: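 Single-point screen at 50 µmol/L in CHO-hSGLT1 cells, with 160 µmol/L 1-NBD-glucose in glucose-free DMEM for 90 min at 37°C. Fluorescence from isopropanol extracts was calibrated, and CHO wild-type uptake was subtracted. Data are percent of uptake without compound.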

Sequence of human SGLT1 (hSGLT1) (P13866 whole entry, looked up): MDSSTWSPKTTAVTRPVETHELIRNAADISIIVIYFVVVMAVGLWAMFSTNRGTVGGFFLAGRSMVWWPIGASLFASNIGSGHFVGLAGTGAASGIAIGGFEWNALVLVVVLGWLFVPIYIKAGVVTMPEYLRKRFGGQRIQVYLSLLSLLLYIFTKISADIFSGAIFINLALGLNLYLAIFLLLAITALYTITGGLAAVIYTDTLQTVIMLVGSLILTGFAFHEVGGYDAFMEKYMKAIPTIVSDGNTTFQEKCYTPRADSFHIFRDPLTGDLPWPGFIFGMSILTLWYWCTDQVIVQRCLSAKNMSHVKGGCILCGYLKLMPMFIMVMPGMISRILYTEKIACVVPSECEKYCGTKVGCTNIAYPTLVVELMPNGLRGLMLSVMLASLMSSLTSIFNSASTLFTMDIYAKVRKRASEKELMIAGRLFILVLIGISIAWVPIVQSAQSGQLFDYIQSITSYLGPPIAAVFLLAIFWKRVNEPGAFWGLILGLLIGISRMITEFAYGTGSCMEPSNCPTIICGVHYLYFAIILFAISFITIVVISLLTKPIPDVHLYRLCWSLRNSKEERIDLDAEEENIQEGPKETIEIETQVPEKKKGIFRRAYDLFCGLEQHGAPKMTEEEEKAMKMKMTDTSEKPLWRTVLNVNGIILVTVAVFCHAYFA

| Compound | NORMALIZED SGLT1 ACTIVITY (%) |
| --- | --- |
| CC(=O)C1CCC2C3CC(=O)C4=CC(=O)CCC4(C)C3CCC12C (centres unmarked) | 120% |
| CN1CCC(=C2c3ccccc3Sc3ccccc32)CC1.O=C(O)/C=C\C(=O)O | 36% |
| CC(=O)O[C@H]1CCC2(C)C3=C(CCC2C1(C)C)[C@@]1(C)CC[C@@H](C(C)CCC=C(C)C)[C@]1(C)CC3 (some centres unmarked) | 207% |
| ClC(Cl)=C(c1ccc(Cl)cc1)c1ccc(Cl)cc1 | 84% |
| Oc1nc2cc(Cl)c(Cl)cc2nc1O | 196% |
| COc1ccc2c(c1OC)C(=O)O[C@H]2[C@H]1c2c(cc3c(c2OC)OCO3)CCN1C.Cl | 110% |
| CC(=O)OC/C=C(C)/C=C/C=C(C)/C=C/C1=C(C)CCCC1(C)C | 186% |
| CCC(/C=C/[C@@H](C)[C@H]1CCC2C3CC=C4C[C@@H](O)CC[C@]4(C)C3CC[C@@]21C)C(C)C (some centres unmarked) | 103% |
| CC(=O)O.N=C(N)NCCC[C@@H](NC(=O)[C@@H](N)Cc1ccc(O)cc1)C(=O)O | 79% |
| Cl.NCC(O)c1ccc(O)cc1 (centres unmarked) | 126% |
| O=C(CC(=O)c1ccccc1)c1ccccc1 | 107% |
| Cc1ncc([N+](=O)[O-])n1CCO | 95% |
| COc1ccc(CCC(=O)c2c(O)cc(O[C@@H]3O[C@H](CO)C(O)[C@H](O)C3O[C@@H]3O[C@@H](C)[C@H](O)[C@@H](O)[C@H]3O)cc2O)cc1O (some centres unmarked) | 143% |
| Cc1cccc(CN2CCN(C(c3ccccc3)c3ccc(Cl)cc3)CC2)c1.Cl.Cl (centres unmarked) | 133% |
| Clc1ccc(C(c2ccc(Cl)cc2)C(Cl)(Cl)Cl)cc1 | 86% |
| Cl.O=C(COc1ccc(Cl)cc1)N1CCN(Cc2ccc3c(c2)OCO3)CC1 | 127% |
| Cc1cc2c(C(C)C)c(O)c(O)c(C=O)c2c(O)c1-c1c(C)cc2c(C(C)C)c(O)c(O)c(C=O)c2c1O | 62% |
| Oc1c(I)cc(I)c2cccnc12 | 97% |
| CC[C@H]1CN2CCC1C[C@@H]2[C@@H](O)c1ccnc2ccc(OC)cc12 (some centres unmarked) | 66% |
| CC(N/C(=N/C#N)Nc1ccncc1)C(C)(C)C (centres unmarked) | 150% |
| Cl.FC(F)(F)c1cccc(N2CCNCC2)c1 | 114% |
| O=C(O)c1cc(=O)c2ccccc2o1 | 87% |
| C[C@H]1C[C@@H]2[C@H]([C@@H](O)C[C@@]3(C)[C@H]2CC[C@]3(O)C(=O)CO)[C@@]2(C)C=CC(=O)C=C12 | 138% |
| CS(=O)(=O)CCCCN=C=S | 243% |
| CC(NC(C)(C)C)C(=O)c1cccc(Cl)c1.Cl (centres unmarked) | 103% |
| O=C([O-])CCC(=O)OC[C@@H](NC(=O)C(Cl)Cl)[C@H](O)c1ccc([N+](=O)[O-])cc1.[Na+] | 94% |
